Assay results: the supplement of paper PMC4604168 (melanoma cell lines)
The other results are listed elsewhere or left out. Many values rest on one well or one pass, so single values are uncertain.

What was measured:
Test in all cases: cell count relative to DMSO control; melanoma cells; higher = more viable cells
Details in all cases: library dose: standard library concentration; 72 h
SkMel28 = test system: SkMel28
SkMel2 = test system: SkMel2
SkMel30 = test system: SkMel30
SkMel5 = test system: SkMel5
UACC257 = test system: UACC257
UACC62 = test system: UACC62
WM115 = test system: WM115
WM1716 = test system: WM1716
WM3526 = test system: WM3526
WM1745 = test system: WM1745
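Also: cells treated in 1,536-well plates, then fixed and DAPI-stained, with nuclei counted from automated high-throughput microscope images.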

Row | Compound | cell count (SkMel28) | cell count (SkMel2) | cell count (SkMel30) | cell count (SkMel5) | cell count (UACC257) | cell count (UACC62) | cell count (WM115) | cell count (WM1716) | cell count (WM3526) | cell count (WM1745)
1 | CC1(C)CCC(c2ccc(Cl)cc2)=C(CN2CCN(c3ccc(C(=O)NS(=O)(=O)c4ccc(N[C@H](CCN5CCOCC5)CSc5ccccc5)c(S(=O)(=O)C(F)(F)F)c4)cc3)CC2)C1 + Oc1nc(-c2ccc(C(F)(F)F)cc2)nc2c1CSCC2 [XAV939] (first compound 2 µM, partner dose 10 µM) | 44% | 80.9% | 91.1% | 49.2% | 29.4% | 78.9% | 84.4% | 35.6% | 103% | –
2 | CC1(C)CCC(c2ccc(Cl)cc2)=C(CN2CCN(c3ccc(C(=O)NS(=O)(=O)c4ccc(N[C@H](CCN5CCOCC5)CSc5ccccc5)c(S(=O)(=O)C(F)(F)F)c4)cc3)CC2)C1 + O=C(O)C(=O)Nc1sc2c(c1C(=O)O)CCNC2 [TCS401] (first compound 2 µM, partner dose 8.33333 µM) | 69.3% | 86.2% | 97.3% | 88.2% | 44.6% | 91.7% | 88.4% | 67.9% | 84.4% | –
3 | CC1(C)CCC(c2ccc(Cl)cc2)=C(CN2CCN(c3ccc(C(=O)NS(=O)(=O)c4ccc(N[C@H](CCN5CCOCC5)CSc5ccccc5)c(S(=O)(=O)C(F)(F)F)c4)cc3)CC2)C1 + COC(=O)c1sccc1S(=O)(=O)Nc1ccc(Nc2ccccc2)cc1OC [GSK0660] (first compound 2 µM, partner dose 5 µM) | 76.5% | 75.6% | 75.4% | 87.9% | 34.2% | 100% | 95.2% | 65.8% | 84.6% | –
4 | O=C(/C=C/c1cccnc1)NCCCCC1CCN(C(=O)c2ccccc2)CC1 + NCC(=O)Nc1ccc(-n2nc(C(F)(F)F)cc2-c2ccc3c(ccc4ccccc43)c2)cc1 [OSU03012] (first compound 0.05 µM, partner dose 5 µM) | 33.4% | – | 47.5% | 73.2% | 76.8% | 74.2% | 78.8% | 71.1% | 48% | 97.4%
5 | CC1(C)CCC(c2ccc(Cl)cc2)=C(CN2CCN(c3ccc(C(=O)NS(=O)(=O)c4ccc(N[C@H](CCN5CCOCC5)CSc5ccccc5)c(S(=O)(=O)C(F)(F)F)c4)cc3)CC2)C1 + CCN(CC)CCCCNc1ncc2cc(-c3cc(OC)cc(OC)c3)c(NC(=O)NC(C)(C)C)nc2n1 [PD173074] (first compound 2 µM, partner dose 0.5 µM) | 89.8% | 73.6% | 63% | 91.5% | 42% | 69.8% | 80.4% | 68.5% | 79.4% | –
6 | CC1(C)CCC(c2ccc(Cl)cc2)=C(CN2CCN(c3ccc(C(=O)NS(=O)(=O)c4ccc(N[C@H](CCN5CCOCC5)CSc5ccccc5)c(S(=O)(=O)C(F)(F)F)c4)cc3)CC2)C1 + CCc1ccc(CCOc2ccc(CC3SC(=O)NC3=O)cc2)nc1 [pioglitazone] (first compound 2 µM, partner dose 10 µM) | 79.3% | 97% | 61.7% | 86% | 35.3% | 63.7% | 84.3% | 69% | 99.7% | –
7 | O=C(/C=C/c1cccnc1)NCCCCC1CCN(C(=O)c2ccccc2)CC1 + CCCCCCCCCCCC1=C(O)C(=O)C=C(O)C1=O [Embelin] (first compound 0.05 µM, partner dose 6 µM) | 78.1% | 55.9% | 117% | 121% | 89.9% | 92.6% | 83.7% | 97.8% | 123% | –
8 | Cc1ccc(Nc2nccc(N(C)c3ccc4c(C)n(C)nc4c3)n2)cc1S(N)(=O)=O [Pazopanib] + COC(=O)c1sccc1S(=O)(=O)Nc1ccc(Nc2ccccc2)cc1OC [GSK0660] (first compound 2 µM, partner dose 5 µM) | 64.2% | 84.8% | 85.9% | 70.3% | 77% | 84.3% | 102% | 75.1% | 81.8% | –
9 | O=C(/C=C/c1cccnc1)NCCCCC1CCN(C(=O)c2ccccc2)CC1 + CC(C)CCN1c2nc(Nc3cc(F)c(O)c(F)c3)ncc2N(C)C(=O)C1C [BID1870] (first compound 0.05 µM, partner dose 1 µM) | 56.6% | 26.2% | 85.7% | 65.4% | 89% | 73.9% | 83% | 75.3% | 74.9% | –
10 | CC1(C)CCC(c2ccc(Cl)cc2)=C(CN2CCN(c3ccc(C(=O)NS(=O)(=O)c4ccc(N[C@H](CCN5CCOCC5)CSc5ccccc5)c(S(=O)(=O)C(F)(F)F)c4)cc3)CC2)C1 + COc1ccc2c(c1)CCC1C2CCC2(C)C(NCCCCCCN3C(=O)C=CC3=O)CCC12 [U73122] (first compound 2 µM, partner dose 2 µM) | 73.2% | – | 49.7% | 73.5% | 32.9% | 53.5% | 49.4% | 35.3% | 81.6% | –
11 | O=C(/C=C/c1cccnc1)NCCCCC1CCN(C(=O)c2ccccc2)CC1 + COc1cc(N2CCC(N3CCN(C)CC3)CC2)ccc1Nc1ncc(Cl)c(Nc2ccccc2S(=O)(=O)C(C)C)n1 [NVP-TAE684] (first compound 0.05 µM, partner dose 0.4 µM) | 71.6% | 43.1% | 99% | 86.9% | 83.6% | 78.3% | 82.3% | 81.1% | 85.6% | –
12 | Cc1ccc(Nc2nccc(N(C)c3ccc4c(C)n(C)nc4c3)n2)cc1S(N)(=O)=O [Pazopanib] + O=c1cc(-c2cccc3c2Sc2ccccc2S3)oc(N2CCOCC2)c1 [KU55933] (first compound 2 µM, partner dose 5 µM) | 94.4% | 108% | 99.5% | 86.8% | 73.6% | 85.7% | 70% | 76.9% | 77% | –
13 | CC1(C)CCC(c2ccc(Cl)cc2)=C(CN2CCN(c3ccc(C(=O)NS(=O)(=O)c4ccc(N[C@H](CCN5CCOCC5)CSc5ccccc5)c(S(=O)(=O)C(F)(F)F)c4)cc3)CC2)C1 + O=C(Nc1cccc(Cl)c1)Nc1ncc(CCNc2ncnc3ccsc23)s1 [SNS314] (first compound 2 µM, partner dose 0.004 µM) | 37.9% | – | 60% | 107% | 33% | 72.7% | 29.2% | 20% | 60.8% | 6.04%
14 | Cc1ccc(Nc2nccc(N(C)c3ccc4c(C)n(C)nc4c3)n2)cc1S(N)(=O)=O [Pazopanib] + Oc1nc(-c2ccc(C(F)(F)F)cc2)nc2c1CSCC2 [XAV939] (first compound 2 µM, partner dose 10 µM) | 61% | 84.8% | 84.6% | 50.9% | 76.6% | 77.6% | 75.3% | 48.8% | 88% | –
15 | O=C(/C=C/c1cccnc1)NCCCCC1CCN(C(=O)c2ccccc2)CC1 + Oc1nc(-c2ccc(C(F)(F)F)cc2)nc2c1CSCC2 [XAV939] (first compound 0.05 µM, partner dose 10 µM) | 52.5% | 68% | 108% | 72.1% | 81.9% | 61.6% | 90% | 59.2% | 103% | –
16 | Cc1ccc(Nc2nccc(N(C)c3ccc4c(C)n(C)nc4c3)n2)cc1S(N)(=O)=O [Pazopanib] + Cc1cc([N+](=O)[O-])ccc1NS(=O)(=O)c1cc(Cl)ccc1Cl [FH535] (first compound 2 µM, partner dose 5 µM) | 52.9% | 71.3% | 75.9% | 47.3% | 55.8% | 58.6% | 74.9% | 48.9% | 57.4% | –
17 | CC1(C)CCC(c2ccc(Cl)cc2)=C(CN2CCN(c3ccc(C(=O)NS(=O)(=O)c4ccc(N[C@H](CCN5CCOCC5)CSc5ccccc5)c(S(=O)(=O)C(F)(F)F)c4)cc3)CC2)C1 + N#Cc1c(O)c2c(-c3ccc(-c4ccccc4O)cc3)csc2[nH]c1=O [A769662] (first compound 2 µM, partner dose 10 µM) | 98.9% | 77.5% | 68.4% | 88.5% | 30.2% | 77% | 85.9% | 69% | 83.5% | –
18 | CC1(C)CCC(c2ccc(Cl)cc2)=C(CN2CCN(c3ccc(C(=O)NS(=O)(=O)c4ccc(N[C@H](CCN5CCOCC5)CSc5ccccc5)c(S(=O)(=O)C(F)(F)F)c4)cc3)CC2)C1 + CCCCCCCCc1ccc(CCC(N)(CO)CO)cc1 [fingolimod] (first compound 2 µM, partner dose 10 µM) | – | 0.127% | 5.17% | 33.9% | 39.8% | 24.1% | 13.2% | 15.6% | 15.2% | 2.74%
19 | CC1(C)CCC(c2ccc(Cl)cc2)=C(CN2CCN(c3ccc(C(=O)NS(=O)(=O)c4ccc(N[C@H](CCN5CCOCC5)CSc5ccccc5)c(S(=O)(=O)C(F)(F)F)c4)cc3)CC2)C1 + CCCCCCCCCCCC1=C(O)C(=O)C=C(O)C1=O [Embelin] (first compound 2 µM, partner dose 6 µM) | 71.3% | 64.1% | 74.9% | 65.5% | 22% | 51.4% | 66.3% | 60% | 77.1% | –
20 | O=C(/C=C/c1cccnc1)NCCCCC1CCN(C(=O)c2ccccc2)CC1 + CCc1ccc(CCOc2ccc(CC3SC(=O)NC3=O)cc2)nc1 [pioglitazone] (first compound 0.05 µM, partner dose 10 µM) | 71.2% | 22.6% | 95% | 101% | 98.4% | 80.4% | 95% | 73.2% | 137% | –
